Sequences with one replicate were seen in a single cluster, so their values are uncertain.
Test system: ATP
Assay: switch fluorescence ratio, 500 uM ATP over buffer (Cy3 cluster intensity, sum of 5 cycles each) (fold (ratio)); higher = stronger signal-on switching upon ATP binding; sequences stand for … in TCGTCGGCAGCGTCAGATGTGTATAAGAGACAGTTTTTTTTTTTTTTTTTTTTTTTTT…TC
Settings: aptamer strand: ATP DNA aptamer (quencher-CACCTGGGGGAGTATTGCGGAGGAAGG + anchor), 100 nM annealed; ATP concentration: 500 uM; one replicate
Outline: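 Between each of five buffer/ATP cycles, the flow-cell was stripped with NaOH and re-annealed. Each cycle imaged Cy3-labelled switching-strand clusters, annealed to 100 nM quencher-labelled ATP aptamer on a modified Illumina MiSeq flow-cell, first in selection buffer and then after 15 min with 500 uM ATP at 22 °C. The fluorescence ratio is summed target-cycle over summed buffer-cycle Cy3 intensity per cluster, averaged per switch-domain sequence, with clusters outside 100-1000 RFU excluded.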
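Also: ATP exposure 15 min at 22 °C before imaging.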

Sequence	switch fluorescence ratio
GTTCAGACCG	1.01
TTATTTCTG	1.06
CTAGATCGT	1
ATGGCTAAGG	0.972
TTAGGACGGT	0.987
ATCGCCGGTA	0.973
ATATGGAAAG	1.04
CTGCGTGGCT	1.03
GAAATAGCCA	0.986
GGGCTCGTGT	0.979
GCTAGGGTAA	1.04
TAGACTAGTC	1.02
TAACAGCGGC	0.997
CTATTCCATG	1.01
CAAGTGAGGT	1.02
CAGAGACGTT	1.05
GTTGTGAGTA	1.02
AATGTCCCCT	1
GCAATGCAAC	1.47
TTAAACGGGC	1.04
ATGCGCAAGA	1.22
TGCGGGACC	0.986
ACCGATACGT	1.19

Sequence	switch fluorescence ratio
ACGGCGGAAC	1.04
TCTATTTGCT	1.01
AGAATGTAAG	1.01
CAACCAACGC	1.44
GTGGTGTTTG	0.975
GAGGGCCTCG	1.01
TTGCGCTCTT	0.977
TTGCGGTCGG	0.951
ATCCGAGA	2.68
AAGCATTAAT	0.997
AGCTGCTAAG	0.985
ACTGACGTTT	1.08
CAAGCAGTGT	1.02
TCACACTTA	1.09
CGTTCGTGAC	1.38
AAGAATACAC	1.01
GTTAGTTGAC	1.04
AGAAGTGCTC	1
AAGGGGGCG	1.05
TAGCCATCGT	1.04
TGCTTGGCTT	0.974
GTAAAAGCTA	1.01
CTGTCGGACG	1.01

Sequence	switch fluorescence ratio
TCGGGGAGTG	1.01
CTGGCACTTC	1.1
AACCTGTTAG	1.01
CCATCCATAT	1.02
GAGCCAACGG	0.94
TCGGTTCGAA	0.999
GGTGATGTT	0.976
AGCTTGGTAT	0.992
GTGATCTTA	0.992
TTGCATTCCG	1.12
GAATCTCGGC	1.06
TAAGCCTGTG	1.01
GGAAGGAGTT	0.989
GTAGAAAAGT	0.986
CTTGGCCGTA	1.02
TCGGGGCAAC	1.12
AGTGTTAGGT	1
CAAATATGG	1.01
GCTAGTAATG	1.01
AGATCTAGCT	0.962
ATTTATTGT	1.02
ACAGCATATG	1.04
CGTGTTCGGT	0.996

Sequence	switch fluorescence ratio
AACGTCTGTT	1.02
TCGTATCTGG	0.955
CGATGAAACT	0.979
TCCGGCCACC	1.18
ATGTAAGC	1.07
TTAACTAAGG	0.984
TACCGGATCT	1.01
CGTTCCGTGT	0.953
CAATTGCTTT	1.01
CTTCATCAAA	2.66
CAGGTCGCCG	0.954
GCTTCGGGAT	1.08
TTATATGCGA	1.01
GCTTAAAGGG	1.03
TAATTGGTTC	0.96
TCAACTGCCT	1.07
ATGTAGGGCT	0.961
ACCGACGTTT	1.38
GAAACGCCAC	1.55
GGAACTTCGC	1.19
GTGCCTTTTT	0.97
CCGTCATAAT	1.33
TAATGGATG	1.03

Sequence	switch fluorescence ratio
AAACGGTTTG	1.02
TGGGTGGAAC	1.01
TATGTAATAG	1.22
GAAACAGCCA	1.1
CACGTGACTG	1.11
GAGCATAAGG	1.06
CTAGATGGGG	1.03
TACCGGGCAA	1.64
GCTAGTCGGG	0.959
TCCTTTATTA	0.963
GGTAGGACGG	1.05
TATCATGATA	1.02
GTTGCTCGAG	0.994
TCAGAAGGAT	0.986
CCAAGTGCCC	1.02
ACTATGCTTG	1.08
AAAGAGGGA	0.987
ATATACAGGC	1.06
AACGTCATGA	1.02
GTAAGAAAAC	0.953
TTTTGATCAG	1
GTGTGATCCA	0.968
CCGACCTCAT	3.01

Sequence	switch fluorescence ratio
CGTTTTTATC	0.981
TGCCAGCAGT	1.09
CCCATAAAA	1.02
AAAGCTCGAG	0.995
CTCCCCTGGG	3.91
TTTGCATTCC	1.51
CCGCTTAGCA	1.65
CTTTTCCTT	1.15
ACAATATGTC	1.01
CAAAAATTGT	1.04
GGAGGCCACG	1
TAGTGAGA	1
GTACATTTGA	1.01
GCGGTCCTTA	0.954
GAGCAAGGCC	1
TGCCTGATTT	0.993
TCAACTCCCT	2.4
ATTAGGATGC	1.02
TTCATCTGAA	0.993
TTATGCGCT	0.966
GATGGAGAG	0.978
AGCGATTACA	0.978
TGATTGTAGC	1

Sequence	switch fluorescence ratio
AACGGACCAC	1.25
TCTTCAAGT	0.935
AGTATATATC	0.966
TAGGGGGAG	1
GACTGTCCAG	1
TTCTATAACT	1.02
TTAGATGTGG	1
GGGTACGGCG	1.03
TAACAACAGT	1.01
AAAGTCTGTT	0.99
GTGGTATGGA	0.963
CGGAGTGGTG	0.962
TAGCTTGTAG	1.07
CGGAACAGGT	0.975
CGAATAACAG	1.02
AACTTTCTCC	2.31
ACTCGCATTG	1.78
GGCCTCAAAG	0.998
CCTCTAGAAT	1.72
GATATACGAA	1.02

— the supplement of paper PMC10126150
